Measurements published in PubChem BioAssay AID493208 (National Center for Advancing Translational Sciences (NCATS), 2011).
The whole screen tested about 44,000 compounds, of which about 340 (0.77%) were called active. Roughly 5% stayed inconclusive and do not appear here. Calls come from the whole dose curve; as a rule, active = well fitted inhibition curve with a large enough effect; inconclusive = small, poorly fitted or top-dose-only effect; inactive = flat fitted curve, though single readings scatter. The list shows a part of the results.

test: Acumen qHTS Assay for Inhibitors of the mTORC1 Signaling Pathway in MEF (Tsc2-/-, p53-/-) Cells: Sytravon; settings: phospho-rpS6 immunofluorescence/PI, 24 h; series mostly up to 38.3 µM; activity change, negative = inhibition: at the top concentration;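 note: plate controls were DMSO for no effect and rapamycin for full effect; nearly all actives have a fitted effect of over 50% in size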
Outline: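 Tsc2-/-, p53-/- mouse embryonic fibroblasts (empty-vector line) exposed to compound 24 hrs at 37 C, fixed, immunostained for phospho-rpS6 and counterstained with propidium iodide. Acumen laser scanning gives % positive cells from Alexa 488/PI ratio, thresholded using 7.5 nM rapamycin; PI count gives viability.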

Activity change, negative = inhibition, inactive:
COC(=O)c1nc2n(n1)C(c1cc(OC)ccc1OC)C=C(c1ccc(Br)cc1)N2 (stereo not drawn) -17.1%, O=C(c1ccccc1F)N1c2nc(-c3ccco3)nn2C2(CCCCC2)[C@@H]2CCCC[C@@H]21 -12.3%, COc1ccccc1CNC(=O)c1ccc(-n2c(C)cc3c2CCCC3)cc1 -7.31%, COc1ccc(Cl)cc1NC(=O)c1cnc(N2CCCCC2)c2ccccc12 -9.48%, Cc1c(Cl)cccc1NS(=O)(=O)c1ccc(NS(=O)(=O)c2ccc3c(c2)OCCO3)cc1 4.75%, CCOC(=O)c1ccccc1NC(=O)N1CC(C)Oc2ccc(C)cc21 (stereo not drawn) 10.4%, CCOc1ccc(NC(=O)CCn2cccn2)cc1 3.95%, CCCCOC(=O)/C(C#N)=C\c1ccc(-c2ccc(Cl)cc2)o1 -2.78%, CC(=O)c1ccc(C(=O)N(Cc2cccnc2)c2nc3c(C)c(C)ccc3s2)cc1 -1.72%, CCOC(=O)N1CCN(C(=O)c2ccc3c(c2)N(Cc2cccc(Cl)c2)C(=O)c2ccccc2S3=O)CC1 (stereo not drawn) -0.215%, O=C1CN(C(=O)COc2ccc(Cl)cc2)C(c2ccc(F)cc2)c2cc(Cl)ccc2N1 (stereo not drawn) 0.533%, Cc1ccc(-c2nc3ccccn3c2Nc2ccc3c(c2)OCCO3)o1 -5.27%, O=C(Nc1ccc(Br)cc1)C1CCN(c2ncccn2)CC1 0.8%, COc1cc(NC(=O)C(=O)Nc2ccc3nc4n(c(=O)c3c2)CCCCC4)cc(OC)c1OC -3.12%, O=C(CN1C(=O)COc2ccc(S(=O)(=O)N3CCCCCC3)cc21)NCCc1ccccc1 -2.64%, Cc1ccc(NC(=O)N2CCN(C)c3ncccc32)cc1C -4.2%, COCCNC(=O)c1c(NC(=O)c2cc(=O)c3cc(Cl)ccc3o2)sc2c1CCCC2 -2.16%, COC(=O)c1ccccc1NC(=O)N1CCC(n2c(C)nc3cccnc32)CC1 26%, COc1cc(OC)c(N(C)C(=O)Cn2ncc3c(=O)oc4ccccc4c32)cc1Cl 2.89%, Cc1ccc(CN2C(=O)N(c3ccccc3)C(=O)C2CC(=O)Nc2ccccc2)cc1 (stereo not drawn) 0.584%, COc1ccccc1NC(=O)Cn1nnc(C(=O)Nc2ccccc2Br)c1N -17.6%, CCc1cccc(C)c1NC(=O)Cn1cc2c(n1)CCCCC2 -13.6%, CC(=O)N1CCN(c2csc3ccc(Br)cc3c2=O)CC1 0.44%, Cc1ccc(CNC(=O)c2cc(=O)c3cc(C)cc(C)c3o2)cc1 0.235%, CCC(C)NC(=O)CSc1nc(-c2ccc(F)cc2)cc(C(F)(F)F)n1 (stereo not drawn) 2.12%, COC(=O)c1ccccc1NC(=O)c1cnc2sc(N3CCOCC3)nn2c1=O -0.774%, CCOc1ccc(NC(=O)c2cc3cc4cc(OC)ccc4nc3s2)cc1 0.552%, Cc1cccc(NS(=O)(=O)c2ccc3c(c2)OCC(C(=O)N2CCCC2)O3)c1C (stereo not drawn) -11.2%, CCc1nn(CCCC(=O)NCc2cc(Br)ccc2OC)c(=O)c2cc3occc3n12 0.576%, COc1cccc(C(=O)Nc2cccc(C(=O)OCc3cc(=O)n4c5c(sc4n3)CCCC5)c2)c1 0%, COc1ccc2cc(CNc3ccc(C)cc3)c(=O)n(CC(=O)Nc3cccc(C(F)(F)F)c3)c2c1 -22%, CCOC(=O)CSc1nc2c(sc3cccc(F)c32)c(=O)n1Cc1ccc(OC)cc1 2.22%, O=c1c2cccnc2n(Cc2cccc(F)c2)c(=O)n1Cc1ccccc1Cl -3.46%, Cc1ccc(-c2nnc(Nc3ccc(O)cc3)c3ccccc23)cc1S(=O)(=O)N1CCCCC1 16.5%, COc1ccccc1-n1c(=O)c2c3c(sc2n(Cc2ccccc2F)c1=O)CN(C(C)=O)CC3 -3.26%, CC(C)(C)C(=O)Nc1ccc2nc(SCC(=O)N3CCc4ccccc43)sc2c1 -5.22%, Cc1ccc(S(=O)(=O)c2cn(CC(=O)Nc3ccc4c(c3)OCO4)c3ccccc3c2=O)cc1C -16.1%, O=C(NCCS(=O)(=O)N1CCN(c2ccc(F)cc2)CC1)C1CC(=O)N(c2ccccc2)C1 (stereo not drawn) -0.178%, CC(C)c1cc(-c2nc(-c3ccc(Br)cc3)no2)n[nH]1 9.7%, CCCN1CCN(CCNC(=O)Nc2ccccc2OCC)CC1 2.04%, CCCN(Cc1cccs1)C(=O)Nc1ccc(Br)cc1F -5.37%, Cc1cc2c(n1-c1ccc(C(=O)NCCc3ccccc3)cc1)CCC(C)C2 (stereo not drawn) -0.497%, COc1ccc2[nH]c(=O)c(CN(C(=O)c3cccc(Cl)c3)c3cccc(C)c3)cc2c1 -5.09%, CCN1CCN(c2ncc3c(n2)CCN(Cc2ccc(OC)c(OC)c2)C3)CC1 6.64%, COc1cccc(CNC(=O)CCCCCn2c(=O)[nH]c3cc(OC)c(OC)cc3c2=O)c1 2.32%, CCN1C(=O)c2ccccc2S(=O)c2ccc(C(=O)N3CCN(c4ccccc4OC)CC3)cc21 (stereo not drawn) -11.7%, CN(Cc1ccccc1)C(=O)c1cc(-c2cccc(Cl)c2)on1 -24.5%, COc1cc(C(CC(=O)Nc2cc(C)ccn2)N2Cc3ccccc3C2=O)cc(OC)c1OC (stereo not drawn) -6.15%, CCOC(=O)c1c(C)[nH]c(C)c1S(=O)(=O)NCC(=O)NCc1ccccc1Cl -1%, Cc1cc2c(n1-c1ccc(C(=O)NCc3ccc(OC(C)C)cc3)cc1)CCCC2 -4.75%, COc1ccccc1NC(=O)CSc1oc(-c2ccccc2)nc1S(=O)(=O)c1ccccc1 -3.16%, COc1ccc2c(c1)c1c(c(=O)n(-c3cccc(C)c3)c(=O)n1CC(=O)NCC1CCCO1)n2C (stereo not drawn) -4.79%, COc1ccccc1CNC(=O)CCCn1c(=O)c2ccccc2n(Cc2ccccc2C#N)c1=O -0.146%, Cc1cccc(Cc2c(C)nc3nc(SCc4ccccc4F)nn3c2C)c1 0.892%, CCOc1ccccc1C(=O)Nc1ccc(S(=O)(=O)Nc2ncccn2)cc1 5.58%, COc1ccc(Cl)cc1NC(=O)NCCc1c(C)nn(C)c1C 9.68%, COc1ccc(OC)c(NC(=O)Cn2c(=O)n(Cc3nc(C)no3)c(=O)c3ccccc32)c1 -6.6%, CCc1cccc(C)c1NC(=O)c1ccc2c(c1)CCN2S(=O)(=O)CC -0.761%, CC(=O)Nc1ccc(NC(=O)c2cc(-c3cccs3)on2)cc1 -1.45%, O=C(CSC1=Nc2ccccc2N=C(c2ccc(F)cc2)C1)Nc1ccc(Cl)cc1 6.31%, Cc1ccc(Sc2c(C)nn(C(=O)c3ccc(Br)cc3)c2C)cc1 4.3%, COc1ccc(Nc2ncnc3onc(C)c23)c(OC)c1 4.16%, COc1ccccc1CNS(=O)(=O)c1ccc2c(c1)CC(C)N2C(=O)C1CCC1 (stereo not drawn) -1.89%
